Test results taken from PMC10487795.
Results are given in words; binding and its absence hold for the method and conditions named. In cells and extracts the contact can be indirect. Some results given as binding are weak or reduced against the parent protein; the word gives no strength.

Chains of the proteins cited; added tags and fusions are not shown.
UniProt P0C746: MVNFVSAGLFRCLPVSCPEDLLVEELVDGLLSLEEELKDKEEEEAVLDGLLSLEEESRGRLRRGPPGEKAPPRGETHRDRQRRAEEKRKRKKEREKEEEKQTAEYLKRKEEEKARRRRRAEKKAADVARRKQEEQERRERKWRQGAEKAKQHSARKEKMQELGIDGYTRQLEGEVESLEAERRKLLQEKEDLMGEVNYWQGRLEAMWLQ

Columns and labels:
[1] = target: S-tagged HBZ (HTLV-1 basic leucine zipper factor) (HTLV-1) (UniProt P0C746); experiment: pull-down; affinity capture pull-down of HBZ with YBX1 deletion mutants (pCMV3 YBX1 constructs) in transfected cells; S beads, NP-40 lysis buffer
[2] = target: HBZ (HTLV-1 basic leucine zipper factor), expressed in HTLV-1-infected T-cell lines (HTLV-1 (expressed in PBL-HTLV-1, SLB-1, ATL-ED, TL-Om1)) (UniProt P0C746); experiment: co-IP; lysates of HTLV-1-infected T-cell lines (PBL-HTLV-1, SLB-1, ATL-ED, TL-Om1) in NP-40 lysis buffer (150 mM NaCl, 1% NP-40, 50 mM Tris-Cl pH 8.0); IP overnight at 4 °C with HBZ antisera, Tax antibody or control rabbit IgG, Dynabeads Protein G; immunoblot
[3] = target: Tax (transactivator from the X region), expressed in HTLV-1-infected T-cell lines (HTLV-1 (expressed in PBL-HTLV-1, SLB-1)) (UniProt P03409); experiment: as above
[4] = target: S-tagged HBZ (HTLV-1 basic leucine zipper factor) (HTLV-1) (UniProt P0C746); experiment: pull-down; HEK293T transfected with S-tagged HBZ or HBZ deletion mutants; NP-40 lysates rocked with S beads overnight at 4 °C, washed twice; immunoblot for YBX1 and S-tag

Row | Substance | binding [1] | binding [2] | binding [3] | binding [4]
1 | YBX1 ∆CTD (∆129–324) (from UniProt P67809 1-128) (domain or fragment) | no binding |  |  | 
2 | Y-box binding protein (YBX1) (from UniProt P67809 1-324) |  | binds | binds | binds
3 | YBX1 ∆A/P (∆1–55) (from UniProt P67809 56-324) (domain or fragment) | binds |  |  | 
4 | HBZ (HTLV-1 basic leucine zipper factor), expressed in HTLV-1-infected T-cell lines (from UniProt P0C746 1-209) |  |  | binds weakly | 
5 | YBX1 ∆CSD (∆56–128) (from UniProt P67809 1-324) | binds |  |  | 
